Whole data set: some 110,000 compounds, median “z-score” near -0.1, cut for the highest 2% near 2. The list shows a part of the results.
The compounds below were run against Metabotropic glutamate receptor 8 (Rattus norvegicus) (UniProt P70579) (assay: rat mGluR8 modulators via GIRK flux, primary screen, cell-based, thallium flux, HTS (AID 488969)). Conditions: HEK293 rat mGluR8, GIRK (G protein-gated inwardly rectifying potassium channel) thallium flux, FluoZin2; at 10 µM; stronger effect = higher value; submaximal glutamate (EC20) added with thallium.
Sequence of UniProt P70579 (P70579 whole entry, looked up): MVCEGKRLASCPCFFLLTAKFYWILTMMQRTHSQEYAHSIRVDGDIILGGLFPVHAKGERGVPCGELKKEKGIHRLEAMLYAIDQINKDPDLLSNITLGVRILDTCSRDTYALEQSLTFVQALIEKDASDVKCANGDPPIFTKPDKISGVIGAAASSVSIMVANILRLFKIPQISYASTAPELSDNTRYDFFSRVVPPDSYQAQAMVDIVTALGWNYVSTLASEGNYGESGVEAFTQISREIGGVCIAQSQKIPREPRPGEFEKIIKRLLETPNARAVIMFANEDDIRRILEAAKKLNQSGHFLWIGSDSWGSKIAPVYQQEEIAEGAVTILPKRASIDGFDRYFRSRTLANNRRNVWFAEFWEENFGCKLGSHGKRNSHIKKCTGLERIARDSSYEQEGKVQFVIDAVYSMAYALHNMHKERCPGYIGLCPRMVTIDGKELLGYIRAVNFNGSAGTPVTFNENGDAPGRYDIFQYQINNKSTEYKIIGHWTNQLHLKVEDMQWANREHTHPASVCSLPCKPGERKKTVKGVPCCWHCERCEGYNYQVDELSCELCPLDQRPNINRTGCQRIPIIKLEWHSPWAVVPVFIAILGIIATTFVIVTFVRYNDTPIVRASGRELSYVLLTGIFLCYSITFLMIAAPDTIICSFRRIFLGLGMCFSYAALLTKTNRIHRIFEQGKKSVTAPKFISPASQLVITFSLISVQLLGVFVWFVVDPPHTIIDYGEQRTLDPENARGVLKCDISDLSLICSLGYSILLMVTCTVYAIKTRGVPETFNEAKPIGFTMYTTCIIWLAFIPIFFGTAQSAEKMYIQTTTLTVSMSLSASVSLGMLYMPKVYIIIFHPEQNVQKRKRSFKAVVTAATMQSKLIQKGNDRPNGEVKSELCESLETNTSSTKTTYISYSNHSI
Work on `CNC(=S)N/N=C/c1ccc(OCC(=O)Nc2c(C)cc(C)cc2C)c(OC)c1` yielded a z-score of -0.178.
`COCCn1c(=O)[nH]c2cc(C(=O)NCCCN3CCN(c4ccc(F)cc4)CC3)ccc2c1=O` showed a z-score of -0.00724.
In the case of `COc1cccc(OC)c1Oc1ccc(C(F)(F)F)cn1`, the z-score is reported as 0.214.
`COC(=O)c1sc(NC(=O)CC(C)C)c(C(=O)OC)c1C` was tested, and the z-score was -0.184.
In the case of `CSc1nc2c(c(=O)[nH]1)CCCC2`, the z-score is reported as -0.193.
For `Cc1ccc(C(=O)Oc2ccccc2N2C(=O)C3C4CCC(C4)C3C2=O)cc1` (stereo not given), the z-score was -0.333.
Work on `COc1ccc(C2N=C(c3ccccc3)C(C)(C)N2O)cc1` (stereo not given) yielded a z-score of 0.252.
`Cc1ccc(-n2c(O)c(C=Nc3ccc4c(c3)OCO4)c3ccccc3c2=O)cc1C` was tested, and the z-score was 0.194.
With `O=C(Cc1cccc2ccccc12)N/N=C/C=C/c1cccc([N+](=O)[O-])c1` the z-score was -0.527.
For `COc1ccccc1NC(=O)N1CCc2[nH]c3ccc(Cl)cc3c2C1`, the z-score was -0.0668.
For `CC12CCC(C(=O)NCc3ccc(Cl)cc3)(OC1=O)C2(C)C` (stereo not given), the z-score was -0.0643.
`O=S(=O)(c1ccc(-c2cn3ccccc3n2)cc1)N1CCOCC1` showed a z-score of -0.0851.
Work on `CCOC(=O)c1ccc(NC(=O)N2CCN(C3CCCCC3)CC2)cc1` yielded a z-score of -0.163.
`COC(=O)CN(c1ccc(OC)c(OC)c1)S(C)(=O)=O` showed a z-score of 0.165.
`CCOC(=O)c1[nH]c2ccc(C)cc2c1NC(=O)CN1CCCCC1` was tested, and the z-score was -1.17.
`Cn1c(NCc2cc(Br)ccc2O)nc2ccccc21` was tested, and the z-score was -0.597.
In the case of `Nc1nnc(SCC(=O)Nc2ccc(F)c(Cl)c2)n1-c1ccccc1`, the z-score is reported as -0.565.
`CCCC(C)NC(=O)COC(=O)c1ccc(Cl)c(S(N)(=O)=O)c1` (stereo not given) showed a z-score of -0.328.
Compound `O=C1OCCC1Sc1nnc(-c2ccccc2)o1` (stereo not given) has a z-score of -0.134.
`CCCCN1C(=O)C2NN=C(C(=O)OC)C2C1=O` (stereo not given) gave a z-score of -0.112.
`COc1cc(C(=O)N/N=C(\C)Cn2nc([N+](=O)[O-])cc2C)ccc1O` showed a z-score of 0.363.
`Cc1ccc(-c2nnc(SCc3nc4ccccc4[nH]3)n2Cc2ccco2)cc1` was tested, and the z-score was -0.115.
`Cc1ccc(C(=O)COC(=O)c2ccccc2NC(=O)c2ccccc2)cc1[N+](=O)[O-]` was tested, and the z-score was 0.0743.
`Cc1ccc(C2=N/C(=C/c3cccs3)C(=O)N2Nc2ccccc2)cc1` was tested, and the z-score was 0.175.
With `O=C(Nc1ccc2c(c1)OCCO2)c1ccc(S(=O)(=O)N2CCCCC2)cc1` the z-score was -0.269.
`CCOC(=O)N1CCC(NC(=O)C2CCN(C(=O)N3CCOc4ccccc43)CC2)CC1` showed a z-score of -0.151.
`O=C(CCSc1nc(-c2ccco2)cc(C(F)(F)F)n1)N1CCN(c2ccccn2)CC1` was tested, and the z-score was -0.717.
`CCN(CC)CCNc1c2c(c(C#N)c3nc4ccccc4n13)CCCC2` gave a z-score of -0.313.
With `Cc1cc([N+](=O)[O-])c(C(C)(C)C)cc1N` the z-score was 1.32.
Work on `Cc1cc2ncn(C(=O)c3c(-c4ccccc4Cl)noc3C)c2cc1C` yielded a z-score of 1.09.
`COc1ccc(OCC(=O)Nc2ccc(S(=O)(=O)N3CCOCC3)cc2)cc1` was tested, and the z-score was -0.0887.
`Cc1cc(NC(=O)CCC(=O)N(c2ccccc2)C(C(=O)NC2CCCC2)c2ccccc2)no1` (stereo not given) gave a z-score of -0.167.
Compound `Cc1nc2ccc(S(=O)(=O)NCC(=O)N3CCN(c4ccccc4)CC3)cc2s1` has a z-score of -0.417.
In the case of `O=C(CCN1CCN(c2ccc(Cl)cc2)CC1)Nc1nccs1`, the z-score is reported as -1.68.
With `O=C(Cc1c(O)c2ccccc2[nH]c1=O)NCc1ccc(F)cc1` the z-score was -0.0894.
`CCc1ccc(C2N(c3ccc(OC)cc3)C(=O)C3CCCN32)cc1` (stereo not given) showed a z-score of -0.173.
With `CCN(CC)C(=O)C(Cc1ccccc1)N1C(=O)c2ccccc2C1=O` (stereo not given) the z-score was -0.101.
`CC1=C(C(=O)Nc2ccccc2)C(c2sccc2C)n2nnnc2N1` (stereo not given) was tested, and the z-score was -0.812.
For `C/C(=N\N=C(N)N)c1ccc(Cl)cc1`, the z-score was 0.836.
With `COc1ccc(Nc2nc(OC)nc(N3CCN(c4ccc(OC)cc4)CC3)n2)cc1` the z-score was -0.184.
`O=C(CSc1nc(Nc2ccccc2)nc(N2CCOCC2)n1)N1CCCC1` gave a z-score of -0.384.
Compound `Cc1occc1-c1nnc(SCC(N)=O)n1Cc1ccccc1` has a z-score of -0.113.
Compound `CSc1ccc(Cl)c(C(=O)OCC(=O)NCC(C)C)c1` has a z-score of -0.206.
For `COc1ccc(NC(=O)NCCCN2CCCCC2C)cc1` (stereo not given), the z-score was 0.284.
Compound `Cc1cccc(NC(=S)NN2CCOCC2)c1C` has a z-score of -0.345.
`CCc1ccc(OCc2nnc(NC(=O)c3cccs3)s2)cc1` gave a z-score of -0.163.
Work on `Cc1nnc(SCC(=O)OC2CC(C)CCC2C(C)C)[nH]c1=O` (stereo not given) yielded a z-score of 0.431.
`CC(=O)Nc1sc2c(c1C(c1ccc(Cl)cc1)N1CCOCC1)CCCC2` (stereo not given) showed a z-score of -0.0741.
With `O=C(c1coc(=O)c(Br)c1)N1CCOCC1` the z-score was 0.0321.
In the case of `CCOc1ccc(CC(=O)NNC(=S)Nc2ccccc2)cc1Br`, the z-score is reported as 0.065.
Work on `O=C1c2ccccc2C(=O)N1CCCc1nc(-c2ccc(Cl)cc2)no1` yielded a z-score of -0.178.
`CCOC(=O)C1CCN(C/C=C/c2ccccc2OC)CC1` showed a z-score of 0.302.
For `CCN(CC)S(=O)(=O)c1cccc(C(=O)N/N=C/c2ccc(O)c(O)c2O)c1`, the z-score was 0.525.
`Cc1ccccc1C(=O)Nc1ccc2c(c1)OCO2` was tested, and the z-score was -0.504.
`CCSc1nnc(NC(=O)[C@@H](NC(=O)c2cccc(C)c2)C(C)C)s1` showed a z-score of -0.402.
Compound `Cc1cccc(NC(=O)c2c(F)c(F)c(F)c(F)c2F)c1` has a z-score of 0.346.
In the case of `O=C(CN1C(=O)CC(c2ccccc2)=Nc2ccccc21)NCc1ccccc1`, the z-score is reported as -0.194.
In the case of `O=C(CSc1nnc2scc(-c3ccccc3)n12)NCc1ccc2c(c1)OCO2`, the z-score is reported as -0.338.
With `CCOc1ccc(N(CC(=O)O)S(=O)(=O)c2ccc(OC)c(OC)c2)cc1` the z-score was 0.044.
With `CCc1ccccc1Nc1nc(N)nc(CSCC(=O)Nc2ccc(C)c(C)c2)n1` the z-score was -2.23.
`COC(=O)C1(S(=O)(=O)c2cc(Br)cc3c2N(C(C)=O)CC3)CC1` showed a z-score of -0.117.
Work on `COc1ccc2c(c1)c(C(=O)N1CCN(C)CC1)c(C)n2-c1ccccc1` yielded a z-score of 0.208.
`Cc1nc2c(c(C)nn2-c2ccccc2)c(C)c1Cl` was tested, and the z-score was 0.509.
For `COc1cc(/C=N/NC(N)=O)c(Br)cc1OCC(=O)Nc1ccccc1C`, the z-score was -0.293.
`Cc1ccc2cc(CN(Cc3ccco3)C(=O)NC3CCCCC3)c(=O)[nH]c2c1C` was tested, and the z-score was 0.547.
With `COC(=O)CSc1nnc(-c2cccnc2)o1` the z-score was -0.0715.
`CC(=O)c1c(C(C)=O)c(C)n(-c2ccc(C)c(NC(=O)c3ccccc3Cl)c2)c1C` showed a z-score of -0.455.
Work on `O=C(Cn1nnc(-c2ccccc2)n1)OCc1csc(-c2ccccc2)n1` yielded a z-score of -0.49.
In the case of `COc1cc(S(=O)(=O)N2CCN(Cc3ccccc3)CC2)ccc1Br`, the z-score is reported as -0.237.
`COc1cc(OC)cc(-c2nnc(SCC(=O)N3c4ccccc4Sc4ccccc43)o2)c1` showed a z-score of -0.17.
